# Laboratory results from PubChem BioAssay (NCATS).
# This is one part of the list. The main result of the screen is listed elsewhere. These columns were measured beside it and carry no call. The list favours compounds with an active or inconclusive main result. Potencies come from curve fits of mixed quality, noted in brackets.
# Experiment: qHTS Assay for Lipid Storage Modulators (AID 1519)
# Settings: Drosophila S3 cells, BODIPY lipid droplet/cell ratio, laser cytometry; measured here: lipid (BODIPY) channel AC50; cells loaded with oleic acid
# How it was run: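 Cells seeded at 5,000 per well were treated with compounds over a concentration series and loaded with oleic acid (400 uM, as added). Lipid droplet fluorescence (488 nm excitation, 500-530 nm channel) was read by laser-scanning cytometry and normalized to 20 uM Triacsin C.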
# Tags describe the fitted curve by direction and shape.
row,Compound,AC50
1,COc1ccc([N+](=O)[O-])c2c1CCN2C(=O)CC[C@H](N)C(=O)O,"35.5 µM [rising, single point]"
2,CCCCCCCC/C=C\CCCCCCCC(=O)N[C@@H](CO)Cc1ccc(O)cc1,"39.8 µM [rising, single point]"
3,COc1ccccc1-c1nc(N2CCN(C)CC2)c2ccccc2n1,"17.8 µM [rising, partial curve, poor fit]"
4,Cc1nc2cnc(OCc3ccccc3)nc2n(Cc2ccc(F)cc2)c1=O,"0.0158 µM [rising, full curve, poor fit]"
5,COc1cc2cc(Oc3ccc4ccc(=O)oc4c3)c(=O)oc2cc1O,"31.6 µM [rising, partial curve]"
6,CN(Cc1ccco1)c1ncnc2ccc(-c3cccc(NS(C)(=O)=O)c3)cc12,"1 µM [rising, full curve]"
7,C#C[C@]1(O)CC[C@H]2[C@H]3CCC4=Cc5oncc5C[C@]4(C)[C@@H]3CC[C@]21C,"5.01 µM [rising, full curve]"
8,O=c1c(-c2ccc(F)cc2)nc2cncnc2n1Cc1ccc(F)cc1,"0.562 µM [rising, full curve, poor fit]"
9,O=c1c(-c2cc(F)cc(F)c2)nc2cncnc2n1C1CC1,"12.6 µM [rising, partial curve]"
10,COc1ccc(-c2coc3ccc(OC4OC(COC(C)=O)C(OC(C)=O)C(OC(C)=O)C4OC(C)=O)cc3c2=O)cc1 (centres undefined),"0.0708 µM [rising, full curve, poor fit]"
11,Cn1cc(-c2nc3cncnc3n(-c3ccccc3)c2=O)c2ccccc21,"0.708 µM [rising, full curve, poor fit]"
12,CC(C)OC(=O)c1cc2c(OC[C@@H](O)CNC(C)(C)C)cccc2[nH]1,"31.6 µM [rising, partial curve, poor fit]"
13,COc1ccccc1CNc1cc(-c2ccccc2C(F)(F)F)ncn1,"31.6 µM [rising, partial curve]"
14,COCCNc1nc(-c2ccoc2)nc2ccccc12,"0.708 µM [rising, full curve]"
15,Cc1nc2cnc(N3CCNCC3)nc2n(CCc2ccccc2)c1=O,"0.316 µM [rising, full curve]"
16,COc1cc(OC)c2c(=O)c(-c3ccc4c(c3)OCO4)coc2c1,"0.0708 µM [rising, full curve]"
17,COc1ccccc1N1CCN(CCN2C(=O)c3ccccc3C(C)(C)C2=O)CC1,"12.6 µM [rising, partial curve]"
18,CN(C)c1ncnc2ccc(-c3cccc(C#N)c3)cc12,"8.91 µM [rising, full curve]"
19,Cc1cccc(CNc2ncncc2-c2ccccc2CN(C)C)c1,"3.98 µM [rising, full curve]"
20,COc1ccc2[nH]cc(CCNc3ncncc3-c3cccc(C#N)c3)c2c1,"0.126 µM [rising, full curve, poor fit]"
21,Cc1noc(C)c1-c1nc(NC2CC2)c2ccccc2n1,"0.02 µM [rising, full curve, poor fit]"
22,CCNc1ncc2nc(-c3ccc(OC)cc3)c(=O)n(Cc3ccc(F)cc3)c2n1,"0.501 µM [rising, partial curve]"
23,COc1ccc(-c2nc3cnc(OC)nc3n(C)c2=O)cc1,"3.16 µM [rising, full curve]"
24,COc1cc2c(C(=O)c3ccccc3)c3c4c(cc(OC)c(OC)c4c2cc1OC)CCN3C,"0.891 µM [rising, full curve]"
25,CS(=O)(=O)Nc1cccc(-c2cc(Nc3ccccc3)ncn2)c1,"0.178 µM [rising, full curve]"
26,COc1cccc(-c2nc(NCc3ccccc3OC)c3ccccc3n2)c1,"0.0355 µM [rising, full curve]"
27,NC(=S)c1ccc[n+]([C@@H]2O[C@@H](COP(=O)([O-])OP(=O)(O)OC[C@H]3O[C@@H](n4cnc5c(N)ncnc54)[C@H](OP(=O)(O)O)[C@H]3O)C(O)C2O)c1 (some centres undefined),"0.0501 µM [falling, full curve, poor fit]"
28,CN(C)C(=O)c1ccc(-c2ccc3ncnc(N(C)Cc4ccco4)c3c2)cc1,"4.47 µM [rising, partial curve]"
29,COc1cccc(-c2nccc(NCc3ccc(OC)cc3OC)n2)c1,"1.58 µM [rising, full curve]"
